“And” between values parts separate entries of the source, which are not always exact repeats. Equal entries are not always repeated. Screen size: about 360,000 compounds; about 6,000 (1.7%) were called active. Inconclusive means that the source gave no clear call. Such entries were picked first, then a sample of the others. Calls follow the shape of the dose curve; as a rule, active = well fitted cell-killing curve with a large enough effect; inconclusive = small, poorly fitted or top-dose-only effect, or effect the other way; inactive = flat fitted curve, though single readings scatter. Potencies of inconclusive entries are left out as doubtful fits.
test: qHTS for induction of synthetic lethality in tumor cells producing 2HG: qHTS for the HT-1080-NT fibrosarcoma cell line; settings: HT-1080-NT fibrosarcoma viability, CellTiter-Glo ATP luminescence, 48 h; activity, negative = less viability: at 46.1 µM (top of the series) unless noted;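 also: NT is the 2HG producing partner of a matched IDH1 knockdown line; nearly all actives have a fitted effect of over 55% in size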;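 as to activity, negative = less viability: 0% = DMSO-treated cells and -100% = media-only wells without cells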
Procedure, shortened: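 A 48-hour cytotoxicity screen used HT-1080-NT cells plated 2 hours before compound delivery. ATP-based CellTiter-Glo luminescence measured viability, normalized to DMSO and no-cell controls.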
Potency is read from the fitted curve at half-maximal effect; tags tell the direction and shape of the fitted curve.

Structure (SMILES) | Potency | activity, negative = less viability
COCc1[nH]nc2c1C(C1C=CCCC1)C(C#N)=C(N)O2 (stereo unspecified) | active: 14.1 µM | –
O=C(CCN1CCOCC1)c1ccc2c(c1)OCCO2 | – | inconclusive: -79.5%
CCN(CC)CCCNC(=O)c1ccc(CS(=O)(=O)c2ccccc2OC)o1 | – | inactive: -1.77%
Cc1ccc2nc(C)cc(N/N=C/c3cccc(O)c3)c2c1 | inconclusive [cytotoxic, single point] | –
Cn1c2ccccc2c(=O)c2ccc(C#CC3(N)CCCCC3)cc21 | inconclusive [cytotoxic, single point] | –
CCN(CC)c1ccc(S(=O)(=O)N2CCCCC2)cc1NC(=O)C1CSC2(C)CCC(=O)N12 (stereo unspecified) | – | inactive: -6.72%
O=C(COc1cccc2ccccc12)NNC(=O)Nc1ccccc1 | inconclusive [cytotoxic, single point] | –
CC(NCCCOc1cccc2ccccc12)c1ccccc1 (stereo unspecified) | inconclusive [cytotoxic, single point] | –
S=C(N/N=C1\CCc2ccccc21)NC1CCCCC1 | – | inactive: -3.05%
CN[C@H]1CC[C@@H](c2ccc(Cl)c(Cl)c2)c2ccccc21 | active: 10.3 µM and active: 7.31 µM | –
O=C(COC(=O)c1ccc(F)cc1F)Nc1ccc2c(c1)OCO2 | – | inactive: 1.37%
Cc1cc(SCC(=O)N/N=C/c2ccc(O)cc2O)c(C)cc1Br | – | inactive: -28.3%
COc1ccc(OC)c(CCNC(=O)CCc2nnc3ccc(N4CCCC4)nn23)c1 | inconclusive [rising, single point] | –
C[C@H](CO)N1C[C@H](C)[C@@H](CN(C)C(=O)Nc2ccc(C(F)(F)F)cc2)Oc2c(NC(=O)Nc3ccccc3)cccc2C1=O | inconclusive [cytotoxic, single point] | –
O=C(N/N=C/c1cccs1)c1cccc(S(=O)(=O)Nc2ccc(Cl)cc2)c1 | active: 11.6 µM | –
O=C1NC2=C(C(=O)CCC2)C(c2ccccc2)N1 (stereo unspecified) | – | inactive: -2.78%
O=C(NNc1cccc(Cl)c1)c1cccnc1Oc1ccccc1 | inconclusive [cytotoxic, full curve] | –
Cc1ccc2nc(N(CCCN(C)C)C(=O)CCc3ccccc3)sc2c1 | active: 14.6 µM | –
COc1cc(C(=O)O/N=C2\C=CC(=O)C(C)=C2)cc(OC)c1OC | active: 23.1 µM | –
COC(=O)[C@H](C)NC(=O)Nc1ccc(OC)cc1OC | – | inactive: 6.79%
Cc1nnc(SCC(=O)NC23CC4CC(CC(C4)C2)C3)s1 | – | inactive: 10.5%
CC[C@@H](C)C(NC(=O)OC(C)(C)C)c1cn([C@@H](CCC(=O)OC(C)(C)C)C(=O)N2CCN(C(=O)OC(C)(C)C)CC2)nn1 (stereo partly specified) | – | inactive: 9.38%
N#C/C(=N\Nc1ccc(Cl)c(Cl)c1)C(=O)C1CC1 | inconclusive [cytotoxic, partial curve, poor fit] | –
Cc1ccc2c(c1)Oc1ccc(NC(=O)CCCl)cc1C(=O)N2 | inconclusive [cytotoxic, single point] | –
O=C1S/C(=C\C=C\c2ccco2)C(=O)N1c1ccc(O)cc1 | inconclusive [cytotoxic, partial curve] | –
Oc1ccc(C[C@H]2CNCCN2CCC23CC4CC(CC(C4)C2)C3)cc1 | active: 16.4 µM | –

Structure (SMILES) | Potency | activity, negative = less viability
O=C(Nc1ccc2c(c1)OCCO2)N1CCN(c2ccc(F)cc2)CC1 | – | inactive: 0.819%
COc1cc2c(cc1NC(=S)Nc1cccc(C)c1)oc1ccccc12 | active: 10 µM | –
CCN=C1S/C(=C\c2sccc2C)C(=O)N1CC | – | inactive: 17.6%
CN1CCCC1CCNC1C2CC3CC(C2)CC1C3 (stereo unspecified) | inconclusive [cytotoxic, partial curve] | –
COCCCN1C(=O)C(CC(=O)NCC2CCCCC2)CC(C(=O)N(C(C)C)C(C)C)=C1C (stereo unspecified) | – | inactive: 21.7%
O=C(O)CNC(=O)/C(=C\c1cccc([N+](=O)[O-])c1)NC(=O)c1ccco1 | inconclusive [rising, partial curve] | –
COc1ccc(-c2c(C)sc(NC(=O)c3ccnn3C)c2C#N)cc1 | active: 13 µM | –
CC1(C)c2ccccc2N2CC(=O)N[C@@]21/C=C/C=C/c1ccccc1 | active: 10.3 µM | –
COC(=O)c1cc(NC(=O)c2ccc(C)cc2)c(=O)oc1C | inconclusive [rising, partial curve] | –
COc1ccc(S(=O)(=O)N2CCOCC2)cc1NC(=O)CN(C)Cc1c(F)cccc1Cl | – | inactive: -9.53%
Cc1ccc(NC(=O)c2ccc([N+](=O)[O-])o2)cc1C | active: 25.9 µM | –
CC(C)(C)OC(=O)N1Cc2ccccc2C[C@H]1C(=O)N1CCC[C@H]1C(=O)O | inconclusive [rising, single point] | –
COc1ccc(CCN2C(=O)CSC2=S)cc1OC | inconclusive [cytotoxic, single point] | –
O=C(C[n+]1ccc(C(=O)NCCCO)cc1)c1cccc(Br)c1 | – | inactive: 23.7%
OCC1(CCCc2ccccc2)CCN(Cc2cnc(N3CCOCC3)s2)CC1 | – | inactive: -3.62%
NS(=O)(=O)OCCCc1ccccc1 | – | inactive: -0.775%
CC(=O)Oc1ccc(C(=O)Nc2cccc(C(=O)c3cccc(NC(=O)c4ccc(OC(C)=O)cc4)c3)c2)cc1 | inconclusive [cytotoxic, single point] | –
CC(C)(C)c1csc(SCC(=O)Nc2ccc(Cl)cn2)n1 | inconclusive [cytotoxic, single point] | –
CN1/C(=C/C=C(/C#N)C(N)=O)C(C)(C)c2ccccc21 | active: 5.8 µM | –
Cc1cc(S(=O)(=O)NCC(c2ccc(F)cc2)N2CCN(C)CC2)ccc1F (stereo unspecified) | inconclusive [cytotoxic, partial curve, poor fit] | –
Cc1cc(C)n(-c2nc(NCCCN(C)C)c3c4c(sc3n2)CCCC4)n1 | active: 14.6 µM | –
COc1ccc(CNC(=O)CN2CCN(C(c3ccccc3)c3ccccc3)CC2)cc1 | – | inactive: -13.7%
CCOC(=O)c1ccc(NC(=O)COc2ccc(S(=O)(=O)N3CCCC3)cc2)cc1 | inconclusive [cytotoxic, single point] | –
CCN(CC)S(=O)(=O)c1ccc(/C=C/C(=O)O)cc1 | – | inactive: 26.9%
O=C(CNC(=O)Cc1cccc2ccccc12)NCc1ccc(F)cc1 | – | inactive: -3.55%

— PubChem BioAssay AID686970 (National Center for Advancing Translational Sciences (NCATS), 2013)
